According to publication PMC9071099, “Towards an advanced testing strategy for genotoxicity using image-based 2D and 3D HepG2 DNA damage response fluorescent protein reporters” (Mutagenesis, 2021):
Where two headings read alike, the source gives them in different places.

Tested on: HepG2 cells
Type: cell-based
Description: Two different compound exposure scenarios were performed: a single exposure in 2D and a 4-day repeated exposure in 3D. A schematic overview of the tested exposure scenarios for each HepG2 model has been depicted in Figure 1. For the single exposure scenario in 2D, medium was replaced by freshly diluted compound in medium 24 h post seeding. DDRs were monitored after 24, 48 and 72 h by live cell confocal imaging (Figure 1A and B). For the 4-day repeated exposure scenario in 3D, each day medium was replaced by freshly diluted compound in medium for four consecutive days (Figure 1C and D). The imaging was started 24 h after the last exposure. For both scenarios, five compounds in eight concentrations were tested. DMSO, PBS or ultrapure H2O were used as solvent controls. The ATP-lite luminescence kit (Perkin Elmer) was used according to supplier’s protocol to measure cell viability. Measurements were performed 72 h or 24 h post single or repeated exposure, respectively. Absolute IC50 values have been calculated over the ATP-lite data by determining the intersect of the fitted concentration–response curve with the 50% viability baseline via GraphPad prism 8.1.1.
Prior to imaging, cells were stained with Hoechst 33342 at a concentration of 0.1 µg/ml to visualise the nuclei. To examine compound-induced cell death using confocal microscopy, propidium iodide (PI) was added during all compound exposures at a concentration of 100 µM to stain for necrotic or late apoptotic cells. The induction of GFP intensities and PI were monitored with a Nikon Eclipse Ti confocal laser microscope (Nikon, Amsterdam, The Netherlands), equipped with lasers at wavelengths 408, 488 and 561, an automated stage and perfect focus system at 37°C and 5% CO2. Images for 2D cultures were acquired with a Nikon 20x Dry Plan Apo VC NA 0.75 objective. Images for 3D cultures were acquired with a Nikon 10x Dry Plan Fluor NA 0.3 objective. For each condition, a z-stack of 9–11 images was generated with a step size of 30 µm.
For 2D cultures, image quantification was performed with Cell Profiler version 2.2.0 (Broad Institute, Cambridge, USA) using modules described previously ([14]). Nuclei segmentation based on Hoechst was done in ImageJ using an in-house developed macro based on the watershed masked clustering algorithm ([27]). Segmentation of the cytoplasmic area was done using the Distance N method expanding the edges of nuclear objects with six pixels followed by subtraction of the nuclear area. p21 and p53-GFP intensities were measured in the nuclei and BTG2-GFP in the cytoplasm. The PI-positive cells were identified by an overlay of the PI signal and the segmented nuclei. A cell was considered positive when there was at least 10% overlap. Results were stored in HDF5 format ([28]). To extract summarised data for further analysis and visualisation, in-house developed R-scripts were used in RStudio (version 1.0.153) (Boston, MA, USA) ([29–31]). The mean nuclear and cytoplasmic intensities of all measured single cells and the fraction of PI-positive cells for each image were extracted as output from the HDF5 files.
For 3D cultures, the NIS Elements analysis software (Nikon, Amsterdam, The Netherlands) was used to quantify the GFP intensity and PI-positive area within spheroids. […] The GFP intensity was measured in the spheroids and the PI-positive area within spheroids was determined by the overlap of PI signal within spheroids. […]

## Cc1c(-c2ccc(-c3ccccc3F)cc2)nc2ccc(F)cc2c1C(=O)O [Brequinar]
HepG2 2D, normal DMEM medium
  cell death: no cell death
HepG2 3D in both medium types or 2D with AAGLY medium, highest concentration
  concentration at which cell death was induced: 100 µM

## N.N.[Cl][Pt][Cl] [Cisplatin]
HepG2 grown in AAGLY medium
  cell death: No cell death
HepG2 in normal DMEM medium, 2D or 3D
  concentration at which cell death was observed: higher than 10 µM

## Nc1ccn([C@@H]2O[C@H](CO)[C@@H](O)C2(F)F)c(=O)n1 [Gemcitabine]
  cell death induction: did not show cell death induction
